# Reference: patent publication US20030092037A1, “Elk1 phosphorylation related gene” (priority 2001, published 2003)
# B1: 22 (protein, listed as Homo sapiens)
# chain: MADGPDEYDTEAGCVPLLHPEEIKPQSHYNHGYGEPLGRKTHIDDYSTWDIVKATQYGIYERCRELVEAGYDVRQPDKENVTLLHWAAINNRIDLVKYYISKGAIVDQLGGDLNSTPLHWATRQGHLSMVVQLMKYGADPSLIDGEGCSCIHLAAQFGHTSIVAYLIAKGQDVDMMDQNGMTPLMWAAYRTHSVDPTRLLLTFNVSVNLGDKYHKNTALHWAVLAGNTTVISLLLEAGANVDAQNIKGESALDLAKQRKNVWMINHLQEARQAKGYDNPSFLRKLKADKEFRQKVMLGTPFLVIWLVGFIADLNIDSWLIKGLMYGGVWATVQFLSKSFFDHSMHSALPLGIYLATKFWMYVTWFFWFWNDLNFLFIHLPFLANSVALFYNFGKSWKSDPGIIKATEEQKKKTIVELAETGSLDLSIFCSTCLIRKPVRSKHCGVCNRCIAKFDHHCPWVGNCVGAGNHRYFMGYLFFLLFMICWMIYGCISYWGLHCETTYTKDGFWTYITQIATCSPWMFWMFLNSVFHFMWVAVLLMCQMYQISCLGITTNERMNARRYKHFKVTTTSIESPFNHGCVRNIIDFFEFRCCGLFRPVIVDWTRQYTIEYDQISGSGYQLV
# Tested on: MAP kinase cascade activation
# Assay: Reporter activity reflecting MAP kinase cascade activation, corrected using an internal control (Elk1-GAL4 luciferase reporter in 293-EBNA cells)
# Type: cell-based, human
# Details: for Reporter activity corrected with internal control, as a factor of null vector (S/B value): 293-EBNA cells, 24 hours
# Protocol: (in the presence of 5% CO2). […] The method used for introduction was in accordance with the attached protocol. After culturing for 24 hours at 37° C., reporter activity (firefly luciferase acitivity), which reflects MAP kinase cascade activation, and reporter activity being the internal control (sea pansy luciferase) were measured using Picagene Dual (purchased from Toyo Ink Manufacturing) in accordance with the manufacturer's instructions.
# Luciferase activity was measured with Perkin Elmer's Wallac ARVOTMST 1420 MULTILABEL COUNTER.
# Reporter activity where an expression plasmid comprising the above gene was introduced, which reflects MAP kinase cascade activation corrected with internal control reporter activity, is shown in Table 1, which is expressed as a factor of the same reporter activity where a null vector was introduced (S/B value).
molecule,measurement,setting,value
B1,"Reporter activity corrected with internal control, as a factor of null vector (S/B value)",25 ng/well expression plasmid,24.2
same,"Reporter activity corrected with internal control, as a factor of null vector (S/B value)",50 ng/well expression plasmid,50.8
same,"Reporter activity corrected with internal control, as a factor of null vector (S/B value)",100 ng/well expression plasmid,69.3
same,Dependence of corrected reporter activity on amount of expression plasmid,"plasmid 12.5 ng, 25 ng, 50 ng and 100 ng",increases that were dependent on the amount of expression plasmid
